± gives the standard deviation of the averaged measurements. The list shows a part of the results.
Tested on: PfAP2-EXP AP2 domain (GST-tagged)
Experiment: gcPBM binding intensity (ln(normalized median fluorescence intensity)); higher = stronger DNA binding
In short: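 Binding of GST-tagged P. falciparum DNA-binding domains, expressed in E. coli and used at about 25 μg on average, was carried out for 1 h in 1× PBS containing 1% milk, 0.2 mg/ml BSA, 0.5% salmon testes DNA and 0.03% Triton X-100. The target was an Agilent 4 × 180k array of primer-extended double-stranded 36-bp intergenic genomic probes plus negative controls, read with Alexa488 anti-GST antibody at 488 nm. Binding intensity is the highest Masliner-normalised natural-log median intensity across replicate spots of either probe orientation.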

Sequence	gcPBM binding intensity (ln)
TTAAATGTTCTATATACATGCAATGATATGTTTCTG [TGCATGCA_site317]	8.55 ± 0.28
TCAAAGTAGGCTTATATGCACACTTTGAAATATTAT [CACACA_site1920]	8.32 ± 0.23
ATATATACATATGGGTGTACATATGCACATATATAT [XGTACX_site8437]	8.61 ± 0.19
TTTAAAATAAATATTACACACAAAATATTAAAAAGC [CACACA_site2129]	8.77 ± 0.36
ACAAAAAAAAACGTGGTGCATTAATAATATTGTATA [GTGCAC_site9469]	8.79 ± 0.28
TAGTTAATATGAAAAAGTACACGTTTCAGTGAAAGT [XGTACX_site7402]	8.76 ± 0.33
AAAAAAAAAAAAAAAAAAAAAAAAAAATATATATAT [CACACA_negctrl_site271]	9.795 ± 0.049
TGCTACTTATAAATAGAACACACATAAGTGTATTTG [CACACA_site9253]	8.21 ± 0.3
AAGAAAAAAAAAAAAAAAAAAAAAAAAAAGGAAAAA [GTGCAC_negctrl_site174]	8.05 ± 0.56
ATACTTCAATCTATTTGTACATATTTTTTAAAACCA [XGTACX_site2328]	8.93 ± 0.51
GAAATTTTTAAATACAGTACACACATGGGTTTAAAT [XGTACX_site6124]	8.8 ± 0.35
ATAAAGCCATACAATACACACATTTGACATGTCCGT [CACACA_site7523]	8.99 ± 0.58
AATAATAAAAAATATACACACATATATAAATAAATA [CACACA_site6164]	8.59 ± 0.38
TATATATATATATATTGTACTAATTGTGCAAATGAG [XGTACX_site682]	10.1 ± 0.25
TAAGAAAAAAAATAATGTACATATGTATTTGAGAAA [XGTACX_site3569]	8.69 ± 0.33
TATATTTAGTAAAAAGGTACCATTCTTATTTATATT [CACACA_negctrl_site1165]	8.31 ± 0.35
TACTGTGATAGCACCACACACGCAAAAGTGAGTATA [CACACA_site1109]	8.64 ± 0.35
TATATTAATAGACACACACACATATTTATATTTATA [CACACA_site6859]	8.46 ± 0.4
TTTCAGCCAAACGATAAACTACGACACTTGAACGAA [CACACA_negctrl_site1747]	8.54 ± 0.4
AATAATAGAAAAAGGTGTACTTATAAACATATACAC [XGTACX_site6921]	8.61 ± 0.28
ATATATATATATATATGTACATATTATATATGAACG [XGTACX_site1585]	10.1 ± 0.37
ATATATTTTTTTTCTTCACACACATGAATTATATAT [CACACA_site9053]	8.94 ± 0.4

Sequence	gcPBM binding intensity (ln)
GTAATTATTATTAATAGTACACACTATGGCATTTCA [XGTACX_site5192]	8.37 ± 0.36
ATTTAATTTATAAAAACACACACAGGTAAAAAGGTG [CACACA_site8306]	9.14 ± 0.45
AAGAAAAAATAAACATGTACATAAATATATATATAT [XGTACX_site304]	9.98 ± 0.18
ATTTTTTTTTTTATGTGTACATATATTTTTTTAATT [XGTACX_site7921]	8.77 ± 0.46
CATACTGTGATAGCACCACACACGCAAAAGAGGGTA [CACACA_site8285]	8.81 ± 0.35
TAAGGCCCTTTTCATCGTACAGTAAAATATAAATAA [XGTACX_site1278]	8.52 ± 0.42
AATTTAACCCATTTTATAATTATTACCACTATATAT [TGCATGCA_negctrl_site452]	8.79 ± 0.28
GAAAATTCTTAAGGCACACACATATATAATATATAC [CACACA_site569]	8.6 ± 0.28
CAAATACATGTGTAAAGTACATATTAATAAGTCTTT [XGTACX_site6342]	8.54 ± 0.45
TGTTGTAAATATGTTTGTACATAAATATATTATTTA [XGTACX_site5442]	8.38 ± 0.35
TTTTTTATTGTGATACGTATATTATTTTTTGATAAA [CACACA_negctrl_site1]	8.79 ± 0.4
TATATTTACATTGTAACACACATGAAATATATATAT [CACACA_site61]	9.105 ± 0.007
AAAAAAAAATAATATTGTACACACATAAATTCTTTG [XGTACX_site4315]	8.33 ± 0.37
TTAATTAATAGACACACACACATATAAATATAGATT [CACACA_site7143]	8.65 ± 0.47
GTGTATTTTCTGCGCACACACATGCAAAAAGAAATA [CACACA_site1148]	9.08 ± 0.071
GTTTTATTAAAAATGTGTACTTAATTATGAAAAAAA [XGTACX_site4689]	8.33 ± 0.16
AAGAAAAAATATAATAATAATAAAATATATATAATA [TGCATGCA_negctrl_site475]	8.22 ± 0.43
TTTGTTTTTCATAGTGCACACATAACCAAAAATAGT [CACACA_site9030]	9.065 ± 0.035
TATTGTTTTGATTGATGTACATGTTTAAAATATATA [XGTACX_site8430]	8.56 ± 0.33
AAAGTAAATTTAAGCACACACAACGAACTTTTATAC [CACACA_site7008]	8.87 ± 0.45
TAATCTATTTATATGTGTACCTATTTAGAAATGACA [XGTACX_site5709]	8.51 ± 0.42
ATATCACATTCCACGGTACACACTAAAAGAAAAATC [CACACA_site3611]	8.76 ± 0.49

Sequence	gcPBM binding intensity (ln)
AGTTTTATGTAGTGTTGTACTTTATACAAATATATT [XGTACX_site614]	8.84 ± 0.42
GCGGGTTTATCTTTCGCACACCTTACATTTTAGAAT [CACACA_site2015]	8.66 ± 0.16
ATAAATCAAAGGCACACACACAAAAAAAAAAAAAAA [CACACA_site160]	8.12 ± 0.59
TGTTTTTTATATTACTGTACATGTTTTGGAATAATA [XGTACX_site4716]	8.8 ± 0.36
GTATCATTAAATTATTGTACATATATATATATATAT [XGTACX_site8809]	10.1 ± 0.57
TATTCCTTCTACAATTAAATAATTATAATAAATATA [GTGCAC_negctrl_site26]	8.46 ± 0.46
AACAAAAATAGAAACACACATACATTGGTTTTCTTT [CACACA_site2534]	8.47 ± 0.57
TATTTTTGTATATATTTATTCTTATTTTACAGGAAA [TGCATGCA_negctrl_site472]	8.54 ± 0.42
ACATTTAAGTTTAGCTGTACATATTCATCATAATTA [XGTACX_site37]	8.71 ± 0.48
TATACATATATATATATATATAGATATATTCACGTG [XGTACX_negctrl_site265]	8.445 ± 0.064
AAAAAAAACAGACACACACACATAAATATAAATAAA [CACACA_site6214]	8.68 ± 0.47
TTTTTAAAAAGTAACACACACTCTTATATATAATGA [CACACA_site3618]	8.46 ± 0.26
AAAATAATAATAAATGCATGTGTTGTTTACTAAGAA [TGCATGCA_site528]	8.88 ± 0.3
TGAACATACATCAAAAGTACAAACTCGCATGTTATA [XGTACX_site3320]	8.66 ± 0.31
CTCCATATTAGACACACACACAAATGAAAAAAATAT [CACACA_site7420]	8.78 ± 0.55
TAAAATTAAACAAAAAAAAAGAAAAAAAAAAAAAAG [CACACA_negctrl_site1098]	8.16 ± 0.42
TTTTTATATTTATATAAATAAAAAAATAACAAAATG [XGTACX_negctrl_site231]	8.64 ± 0.42
TACCTATACAGACACACACACACACGCCCACAAAAA [CACACA_site6375]	8.77 ± 0.35
CCGCCATTGTACCATCCACACACATATATATATGTA [CACACA_site8866]	9.15 ± 0.54
TTTTGGTATACGTAATTATATAATATGTTAATCAAT [CACACA_negctrl_site645]	8.52 ± 0.44
AATGTAGACACATATGTACACACATATATATGTATA [CACACA_site9014]	8.57 ± 0.37
AATATTCTATATGATACATGCATGATGGAATAAAAA [TGCATGCA_site980]	9.16 ± 0.35

Sequence	gcPBM binding intensity (ln)
ATTATATATATATTATGTACATATATTGAAGTGGAT [XGTACX_site5916]	8.97 ± 0.49
TACGAAATCATATGTACACACACATATATATATATA [CACACA_site5216]	10.1 ± 0.39
ACGGATTAAAAAATGTGTACGCACAAAAAAAAAAAT [XGTACX_site8259]	8.66 ± 0.16
ATATATATATATATATGTACTTAATGTTATTATATA [XGTACX_site4508]	9.98 ± 0.45
TGTTCAGTATTGCACACACACAACAAAATAAAAAAA [CACACA_site6314]	8.62 ± 0.38
GAAATGTGATAATATACACACACGCATATATATATA [CACACA_site4332]	9.86 ± 0.3
TGAAAATATATAACGCGTACAAAAAGGAAATACAAT [XGTACX_site3534]	9.1 ± 0.57
AAATAGTTGTTAAAGGTGCACAATATGGATATAAGA	9.88 ± 0.52
TTTTTTTTTTTTTTTGCATGTTGAAAATAAAATTAT [TGCATGCA_site86]	8.2 ± 0.46
ATTTATTTTAAATAAGTGCAAAATGGTTATAAATAA	8.86 ± 0.33
ATGTACTATAGGCACACACACTCACATATATATATA [CACACA_site5745]	9.96 ± 0.22
ATAAATATTTTGTAAGCATGCTTTTAAAAAAAGAAA [TGCATGCA_site572]	8.63 ± 0.51
AAAATTTCAATAAATACACACATATAAATATAGATT [CACACA_site6893]	8.32 ± 0.38
ATATATTTTTATATAGTGCAAGTAATAAAAAGGAAT	9.06 ± 0.29
GGAAAAAAATAAAATAAGTATTTTACATACATATTG [TGCATGCA_negctrl_site10]	8.13 ± 0.37
AAAACTTTTTTAACAGAAAAATAGGGATACAATATA [CACACA_negctrl_site1708]	8.84 ± 0.66
ATATCATTTTATTTGTGTACTTAAAAAGTTGCAATG [XGTACX_site4099]	8.6 ± 0.28
ATAACATTCAAAAAATGTACAAACATATGAATAAAT [XGTACX_site7013]	8.62 ± 0.47
GGAATAACCAGACACACACACACATATAAATATGTA [CACACA_site7632]	8.51 ± 0.49
TAAATACAAGAACTGACACACATACATACTACATTT [CACACA_site5561]	8.62 ± 0.49
GAACATTACGTAAATAAATAAATAAAAATAAATACA [XGTACX_negctrl_site25]	8.71 ± 0.57
AAAAAACTTCACATATGTACTTAAAAAAAATTAAAA [XGTACX_site2368]	8.38 ± 0.38

— the supplement of paper PMC11417369
